About 230 (0.21%) of roughly 110,000 compounds showed an effect of 50% or more. The list shows a part of the results.
molecular target: DPAP1 (Plasmodium falciparum, UniProt Q8IIJ9); test: primary screen, percent inhibition; read by cleavage of a fluorogenic dipeptide substrate; higher = more effect of the substance; design: species or system P. falciparum D10 trophozoite lysates; single well
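Further: 30 min substrate incubation versus DMSO and 10 µM JCP410 controls.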

DPAP1, sequence (Q8IIJ9 whole entry, looked up): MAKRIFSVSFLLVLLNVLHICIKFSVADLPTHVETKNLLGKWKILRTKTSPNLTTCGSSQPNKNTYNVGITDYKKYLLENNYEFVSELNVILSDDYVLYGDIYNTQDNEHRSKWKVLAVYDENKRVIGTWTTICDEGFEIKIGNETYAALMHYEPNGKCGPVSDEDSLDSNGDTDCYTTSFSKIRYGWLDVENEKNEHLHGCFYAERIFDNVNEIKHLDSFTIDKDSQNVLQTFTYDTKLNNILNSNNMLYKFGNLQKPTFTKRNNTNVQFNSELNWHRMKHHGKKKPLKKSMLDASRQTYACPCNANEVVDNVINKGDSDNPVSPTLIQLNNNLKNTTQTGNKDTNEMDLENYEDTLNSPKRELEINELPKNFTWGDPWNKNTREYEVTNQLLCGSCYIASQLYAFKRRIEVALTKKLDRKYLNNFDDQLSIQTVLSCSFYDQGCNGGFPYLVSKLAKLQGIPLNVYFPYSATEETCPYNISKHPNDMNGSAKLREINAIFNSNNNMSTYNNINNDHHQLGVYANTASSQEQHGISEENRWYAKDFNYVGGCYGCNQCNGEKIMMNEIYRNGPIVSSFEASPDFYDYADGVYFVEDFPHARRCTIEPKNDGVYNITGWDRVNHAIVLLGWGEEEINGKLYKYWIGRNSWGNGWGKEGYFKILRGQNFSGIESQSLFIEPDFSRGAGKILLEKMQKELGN

SMILES | % Inhibition @ 10 uM
Cc1ccc(CNC(=O)Cn2c(=O)c3sccc3n(Cc3ccccc3F)c2=O)cc1 | 2.4%
CCn1c(SCC(=O)NC2CCCC2)nc2c(c1=O)SCC2 | 0.8%
COc1ccc(CCNS(=O)(=O)c2c(C)cc(C)cc2C)cc1OC | 0.528%
Fc1ccc(CN2CCN(c3ncnc4onc(-c5ccc(Cl)cc5)c34)CC2)cc1 | 4.28%
CCOCCCNC(=O)CCCn1nc(C)n2ccnc2c1=O | -3.34%
COCCNC(=O)c1cc2c(s1)-c1ccccc1S(=O)(=O)C2 | -3.96%
CCO/C(O)=C1/C(C)=Nc2nc(SCc3ccccc3F)nn2C1c1ccc(OC)cc1 (stereo not drawn) | -6.08%
CN(Cc1ccccc1)C(=O)COc1ccccc1 | 7.09%
CC1(C)CC(=O)C(/C=N/c2ccc(Cl)cc2C(F)(F)F)=C(O)C1 | 3.92%
CSc1ccc(Cl)c(C(=O)Nc2nc3ccccc3n2C)c1 | -6.65%
CC1CCCCN1Cc1nc2c(c(=O)n(C)c(=O)n2C)n1CC(=O)c1ccccc1 (stereo not drawn) | -4.14%
CS(=O)(=O)C1=NN2C(=N)/C(=C\c3ccc(Cl)cc3)C(=O)N=C2S1 | -5.27%
CC(=O)NCc1ccc(S(=O)(=O)N(C)C)cc1 | -6.94%
CCOCCCNC(=O)c1ccc(OCC)cc1 | 2.44%
CN(Cc1ccccc1)C(=O)C(CC1CCCCC1)C(=O)NCC#N (stereo not drawn) | -3.49%
O=C(CCc1ccccc1)Nc1cc(C(F)(F)F)ccc1Cl | -0.273%
CC(C)CC(=O)/N=C1/SC2CS(=O)(=O)CC2N1CCc1ccccc1 (stereo not drawn) | 3.81%
N#C/C(=C/c1ccc(F)cc1)c1nc2ccccc2[nH]1 | -2.41%
O=c1c2sccc2nc(SCc2cc(=O)n3cc(Cl)ccc3n2)n1Cc1ccccn1 | -4.01%
CCCN(CCC)C(=O)CSc1nc2ncccc2o1 | -0.441%
COc1ccc(OC)c(C2C(C(=O)c3ccccc3)=C(O)C(=O)N2c2cccnc2)c1 (stereo not drawn) | 6.22%
COc1ccc(C2C(C#N)=C(N)OC3=C2C(=O)CC(C)(C)C3)cc1O (stereo not drawn) | 1.66%
Cc1cc(O)n2nc(-c3ccc(Cl)cc3)cc2n1 | -1.92%
N#Cc1c(NC(=O)c2cccnc2Cl)sc2c1CCC2 | 0.777%
Cc1sc(NC(=O)C2CCCC2)c(C#N)c1C | -4.41%

SMILES | % Inhibition @ 10 uM
COc1ccc(C2C3=C(O)CC(C)(C)CC3=NC3=C2C(=O)CC(C)(C)C3)cc1O (stereo not drawn) | 4.45%
Clc1ccc(-n2ncc3c(N4CCC5(CC4)OCCO5)ncnc32)cc1 | 1.26%
CC(C)Oc1ccc(C2CC(=O)NC3=C2C(=O)CCC3)cc1 (stereo not drawn) | -1%
CCN(CC)c1ccc(NC(=O)Cc2ccc(F)cc2)cc1 | 4.44%
COc1ccc(-c2c3c(nc4sc5c(O)nc(C)nc5c24)CCC3)cc1 | 3.5%
Cc1ccccc1NC(=O)c1cccc(N2C(=O)C3C4C=CC(C4)C3C2=O)c1 (stereo not drawn) | -5.23%
O=C(Cn1nc(-c2ccc(Cl)cc2)c2ccccc2c1=O)NCCN1CCOCC1 | -8.79%
CC(=O)c1ccccc1-c1ccccc1C(=O)O | 2.4%
CCN(CC)C(=O)Nc1cc(NC(=O)N(CC)CC)c(C)nc1C | 1.84%
Cc1ccc2cc(C#N)c(O)nc2c1 | 5.2%
O=C(Nc1cccc2ccccc12)NC(c1ccccc1)c1ccccc1 | -5.62%
CCOc1ccc2nc(NC(=O)C3CCC3)sc2c1 | -13.3%
N#Cc1nc(/C=C/c2ccc(F)cc2)oc1NCCCn1ccnc1 | -0.808%
O=C(N/C(C(=O)N1CCOCC1)=C(\SCc1ccccc1)c1ccccc1)c1ccccc1 | -3.98%
COc1cc(C2CC(=O)Oc3c2c(=O)oc2ccccc32)cc(OC)c1OC (stereo not drawn) | -2.19%
CC(=O)Nc1ccc(N2C(=O)C3C4CCC(C4)C3C2=O)cc1 (stereo not drawn) | -0.795%
COc1cc2cc(-c3ccccc3)nc(C)c2cc1OC | 4.55%
CCCS(=O)(=O)N1CCCC(C(=O)NCCCN(CC)CC)C1 (stereo not drawn) | 6.32%
CC(C)CN1C(=O)c2ccccc2C(C(=O)N2CCN(C3CCCCC3)CC2)C1c1cccs1 (stereo not drawn) | 1.97%
CCOC(=O)N1CCC2(CC1)OC(=O)C(C)=C2C(=O)NCc1ccc2c(c1)OCO2 | -1.58%
COc1ccc(NC(=O)C(C)(C)C)cc1 | -0.0372%
CC1(C)CC(=O)C2=C(C1)OC1=C(C(=O)CC(C)(C)C1)C2c1cccs1 | -0.127%
Cc1cccc(CCNC(=O)CNS(=O)(=O)c2ccc3nc(C)sc3c2)c1 | 2.57%
CC1=CC2=NC(=O)/C(=C\c3ccc(OCCOc4ccccc4C)c(Cl)c3)C(=N)N2O1 | -9.06%
COc1cc(OC)c(OC)cc1CN1CCN(Cc2cccc(F)c2)CC1 | -1.65%

SMILES | % Inhibition @ 10 uM
CC(NC(=O)c1sc2nc3c(cc2c1N)N1CCC3CC1)c1ccccc1 (stereo not drawn) | -3.03%
Cc1ccc(C2CC(=O)N3CN(C4CCCCC4)CSC3=C2C#N)cc1 (stereo not drawn) | 25.9%
O=C(Nc1ccccc1Nc1cc(-c2ccccc2)nn1-c1ccccc1)c1ccccc1 | -4.35%
COc1cc(C2CC(c3c(O)cc(C)oc3=O)=Nc3ccccc3S2)cc(OC)c1O (stereo not drawn) | 1.54%
CCN(CC)CCNC(=O)Nc1cn(C)c(=O)c2ccccc12 | 2.99%
CC(C)(O)C1Cc2cc3ccc(=O)oc3cc2O1 (stereo not drawn) | 0.467%
CCn1c(/C=C/c2cccs2)nc2ccccc2c1=O | -0.872%
O=C1c2cccnc2C(=O)N1CCc1ccc(S(=O)(=O)N2CCC(Cc3ccccc3)CC2)cc1 | -3.01%
COCCCNC(=O)c1nnc(-c2cccnc2)o1 | -2.23%
O=C(CN1C(=O)c2ccccc2Sc2ncccc21)N1CCCCC1 | 2.06%
COc1ccccc1C(=O)Nc1ccc(C)cc1C | -1.61%
Cc1cc(O)n2c(-c3ccccc3C)nnc2n1 | -5.92%
O=C(CSc1ncccn1)Nc1cc(C(F)(F)F)ccc1Cl | -3.98%
COc1ccc(N2CCN(Cc3ccoc3)CC2)cc1 | -2.81%
COc1ccc2c(=O)c(Oc3ccccc3Br)c(C(F)(F)F)oc2c1 | 25.4%
O=C(NCC1CCCO1)c1cc2c(Cl)nc3ccccc3c2s1 (stereo not drawn) | -3.99%
COc1ccc(-c2nc(CSCC(=O)N3CCN(C)CC3)c(C)o2)cc1OC | -1.27%
COc1ccc2c(c1)c1c(c(=O)n(Cc3ccccc3)c(=O)n1C)n2C | -5.37%
c1coc(CSc2nn3nnnc3c3ccccc23)c1 | 4.1%
CN(CC(=O)N1CCCCCC1)S(=O)(=O)c1ccc2[nH]c3c(c2c1)CCCC3 | -2.22%
CC1CCN(C(=O)c2ccc(N3C(=O)C4C5C=CC(C5)C4C3=O)cc2)CC1 (stereo not drawn) | -5.58%
COc1cc(NC(=O)c2cnn3c2NC(c2cccs2)CC3C(F)(F)F)c(OC)cc1Cl (stereo not drawn) | -0.67%
CCCCCCCCc1nnc(NC(=O)c2ccccc2)s1 | -4.08%
N#Cc1c2n(c3c(O)ncnc13)CCCC2 | -2.51%
Cc1ccc2c(c1)-c1c(cnn1CC(=O)N1CCC(N3CCCCC3)CC1)CO2 | -8.2%

SMILES | % Inhibition @ 10 uM
COc1ccc(CCNC(=O)[C@H]2O[C@@H]3OC(C)(C)O[C@@H]3[C@H]3OC(C)(C)O[C@H]32)cc1OC | 1.64%
CCC1CCCCN1C(=O)CSc1nnc(CNC(=O)c2cc(OC)c(OC)c(OC)c2)o1 (stereo not drawn) | 3.48%
CCC1CCCCN1C(=O)Cn1c(C(=O)OC)cc2sc(Cl)cc21 (stereo not drawn) | -7.13%
CCSc1nc(O)c2c(n1)NC(=O)CC2c1cccc(O)c1 (stereo not drawn) | 3.84%
Cc1ccccc1S(=O)(=O)Cc1ccc(C(=O)NCCCN2CCOCC2)o1 | 3.77%
COc1cc2ncc(S(=O)(=O)c3ccccc3)c(N3CCN(C)CC3)c2cc1OC | -10.2%
CC1CCN(S(=O)(=O)c2nnc(NC(=O)c3ccccc3Br)s2)CC1 | 1.68%
CC(=O)C1=C(C)OC(N)=C(C#N)C1c1ccccc1[N+](=O)[O-] (stereo not drawn) | -1.29%
CCc1ccc(C2=NN(CCC(=O)NCc3cccs3)C(=O)CC2)cc1 | -0.971%
COc1ccc(N2C(=O)C(Cl)=C(Nc3cccc(C(F)(F)F)c3)C2=O)cc1 | 4%
O=C(NCc1ccco1)C1Sc2nnc(-c3ccccc3)n2NC1c1ccc(Cl)cc1 (stereo not drawn) | 1.72%
CC(C)C12CN3CC(C(C)C)(CN(C1)C3c1ccc(O)cc1O)C2=O (stereo not drawn) | -1.19%
O=[N+]([O-])c1c(Nc2ccc(Cl)cc2)nc(Nc2ccccc2)nc1Nc1cccc(Cl)c1 | 2.6%
COc1ccc(Br)cc1CNC(=O)CCC(=O)n1nc(C)c2ccccc21 | 8.34%
COc1ccc(OC)c(NC(=O)c2ccc(C)cc2)c1 | 10.7%
Cc1cccc(C2OC3(C(=O)c4ccccc4C3=O)C3C(=O)N(C4CCCCC4)C(=O)C23)c1 (stereo not drawn) | 2.93%
COc1ccc(S(=O)(=O)Cc2ccc(C(=O)NCc3ccccn3)o2)cc1 | 2.14%
O=C(CN1C(=O)C2C3c4ccccc4C(c4ccccc43)C2C1=O)Nc1cccc(C(=O)O)c1 (stereo not drawn) | 0.727%
O=C1C(=O)N(CN2CCOCC2)c2ccc([N+](=O)[O-])cc21 | -5.51%
CC1CCN(S(=O)(=O)c2ccc(NC(=O)C3CCCO3)cc2)CC1 (stereo not drawn) | -6.43%
COCc1cc(C)nc(SCC(=O)c2ccc(Cl)cc2)c1C#N | 0.687%
COc1ccc(Cc2nnc(NC(=O)Cn3cnc4c3c(=O)n(C)c(=O)n4C)s2)cc1OC | 3.12%
Cc1cc(NCc2ccc(F)cc2Cl)n2nnnc2n1 | 3.51%
CCC(=O)Nc1sc2c(c1C(=O)Nc1ccccc1)CCC(C)C2 (stereo not drawn) | 3%

Source: publication PMC6919601, “Identification of Plasmodium dipeptidyl aminopeptidase allosteric inhibitors by high throughput screening” (PLoS ONE, 2019)
